{
  "source": "PubChem BioAssay AID2675",
  "about": "(National Center for Advancing Translational Sciences (NCATS), 2010)",
  "note": "About 100 (0.036%) of roughly 280,000 compounds were called active. Inconclusive means that the source gave no clear call. Such entries were picked first, then a sample of the others. Calls come from the whole dose curve; as a rule, active = well fitted inhibition curve with a large enough effect in the signal ratio, with a control signal flat (not every such curve was filed as active); inconclusive = small, poorly fitted or top-dose-only effect, or effect the other way, or a change in a side signal; inactive = no such curve, though single readings can be large or run the other way; the % refers to the signal ratio. A potency beside an inconclusive call is a rough fit, not a confirmed value. A note “side channel” means that the fit belongs to a control or component signal, not to the main read-out. Potency is the fitted concentration of half-maximal effect; tags give direction and shape of the fitted curve or compound fluorescence and quenching.",
  "data": [
    {"biological_target": "Muscleblind-like protein 1 (Homo sapiens) (UniProt Q9NR56)", "sequence (Q9NR56 whole entry, looked up)": "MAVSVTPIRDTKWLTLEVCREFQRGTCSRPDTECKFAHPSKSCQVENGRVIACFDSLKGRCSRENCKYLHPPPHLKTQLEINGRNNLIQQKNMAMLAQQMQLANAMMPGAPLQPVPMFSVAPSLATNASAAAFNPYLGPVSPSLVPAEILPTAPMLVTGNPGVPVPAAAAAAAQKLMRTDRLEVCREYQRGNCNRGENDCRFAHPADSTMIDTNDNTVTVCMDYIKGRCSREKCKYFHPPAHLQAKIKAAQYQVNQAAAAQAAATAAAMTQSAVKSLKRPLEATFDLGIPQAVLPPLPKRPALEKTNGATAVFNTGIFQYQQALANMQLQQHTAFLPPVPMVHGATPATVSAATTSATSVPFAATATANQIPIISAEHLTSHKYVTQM", "experiment": "qHTS Assay for Inhibitors of MBNL1-poly(CUG) RNA binding", "conditions": "TR-FRET MBNL1-His/biotin-(CUG)12 binding, 665/545 ratio; series mostly up to 57.5 µM", "procedure,_shortened": "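TR-FRET between His-tagged MBNL1 and biotin-(CUG)12 RNA, detected with Tb anti-His antibody (0.055 ng/ul) and streptavidin-XL665 (5 nM), 60 min at room temperature. Compounds titrated 92 nM to 58 uM; 665/545 nm ratio normalized to buffer and complex controls.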", "values": [
      {"molecule": "Cn1c(=O)[nH]c(Nc2ccccc2)c([N+](=O)[O-])c1=O", "Potency": "inconclusive: 31.6 µM [quencher, side channel, single point]"},
      {"molecule": "COc1cc(NC(=O)c2ccc([N+](=O)[O-])o2)ccc1NC(=O)c1cccs1", "Potency": "inconclusive: 2.82 µM [quencher, side channel, full curve]"},
      {"molecule": "O=C(Nc1nccs1)c1ccc(Cl)c([N+](=O)[O-])c1", "Potency": "inconclusive: 11.2 µM [quencher, side channel, partial curve]"},
      {"molecule": "Cc1c(NC(=S)NC(=O)c2ccc(Br)o2)c(=O)n(-c2ccccc2)n1C", "Potency": "inactive"},
      {"molecule": "COc1nc(Cl)cn(-c2ccc(C)cc2)c1=O", "Potency": "inconclusive: 20 µM [quencher, side channel, single point]"},
      {"molecule": "Cc1ccc(C(=O)N2CC3(C)CN(C(=O)c4ccc(C)cc4)CC(C)(C2)C3=O)cc1", "Potency": "inconclusive: 5.01 µM [fluorescent, side channel, full curve, poor fit]"},
      {"molecule": "O=C(Oc1ccc(C(=S)N2CCOCC2)cc1)c1cc([N+](=O)[O-])cc([N+](=O)[O-])c1", "Potency": "inconclusive: 2 µM [quencher, side channel, full curve]"},
      {"molecule": "CC(C)(C)c1ccc(C(=O)c2c[nH]c(C(=O)NCc3cccnc3)c2)cc1", "Potency": "inactive"},
      {"molecule": "C=CCN1C(=O)/C(=C/c2ccc(O)c(OC)c2)S/C1=N/c1nccs1", "Potency": "inconclusive: 10 µM [quencher, side channel, partial curve]"},
      {"molecule": "COc1ccc(C(CNC(=O)/C=C/c2c(Cl)nc3ccccn23)N(C)C)cc1", "note": "(configuration not stated)", "Potency": "inconclusive: 39.8 µM [quencher, side channel, single point]"},
      {"molecule": "CC1CCCCC1NC(=O)CN1CCC(NC(=O)c2ccc([N+](=O)[O-])cc2)CC1", "note": "(configuration not stated)", "Potency": "inconclusive: 14.1 µM [quencher, side channel, partial curve]"},
      {"molecule": "N#Cc1c(Sc2ncc(C(F)(F)F)cc2Cl)nsc1C/C=N\\OCc1ccccc1Br", "Potency": "inactive"},
      {"molecule": "CCCOc1ccc(C2c3c(oc4cc(C)c(C)cc4c3=O)C(=O)N2CCCN(C)C)cc1OCC", "note": "(configuration not stated)", "Potency": "inconclusive: 79.4 µM [inhibitor, single point]"},
      {"molecule": "N/C(=N\\OC(=O)CC1CCCCC1)c1ccc([N+](=O)[O-])cc1", "Potency": "inconclusive: 20 µM [quencher, side channel, single point]"},
      {"molecule": "CCc1cccc(CC)c1NC(=S)N1CCn2cccc2C1c1cccnc1", "note": "(configuration not stated)", "Potency": "inconclusive: 35.5 µM [fluorescent, side channel, single point]"},
      {"molecule": "COc1ccc(Cn2c(=N)c(C(=O)NC3CCCCC3)cc3c(=O)n4ccccc4nc32)cc1", "Potency": "inconclusive: 2.24 µM [quencher, side channel, full curve, poor fit]"},
      {"molecule": "O=c1ccc(-c2ccc(S(=O)(=O)Nc3cccc([N+](=O)[O-])c3)s2)n[nH]1", "Potency": "inconclusive: 15.8 µM [quencher, side channel, partial curve]"},
      {"molecule": "Cc1[nH]n(-c2ccccc2)c(=O)c1N=O", "Potency": "inconclusive: 35.5 µM [quencher, side channel, single point]"},
      {"molecule": "Oc1ccc(C=Nc2cccc3ccccc23)c(O)c1", "Potency": "inconclusive: 31.6 µM [quencher, side channel, partial curve]"},
      {"molecule": "COc1ccc2[nH]c(=O)c(CN(CCc3ccccc3)Cc3nnnn3CC3CCCO3)cc2c1", "note": "(configuration not stated)", "Potency": "inconclusive: 25.1 µM [quencher, side channel, partial curve]"},
      {"molecule": "CN(C)CCCNC(=O)c1cc(C(=O)Cc2ccccc2)c[nH]1", "Potency": "inactive"},
      {"molecule": "CN(C1CCCCC1)S(=O)(=O)c1cccc(C(=O)OCC(=O)NC2CCCc3ccccc32)c1", "note": "(configuration not stated)", "Potency": "inactive"},
      {"molecule": "O=C(COC(=O)c1ccccn1)Nc1nc(-c2cccc([N+](=O)[O-])c2)cs1", "Potency": "inconclusive: 15.8 µM [quencher, side channel, partial curve, poor fit]"},
      {"molecule": "O=C(Nc1ccc(S(=O)(=O)Nc2ncccn2)cc1)c1ccc(Cl)c([N+](=O)[O-])c1", "Potency": "inconclusive: 10 µM [quencher, partial curve]"},
      {"molecule": "Cc1ccc(C(=O)Oc2coc(CSc3nnc(NC(=O)C4CC4)s3)cc2=O)cc1", "Potency": "inconclusive: 7.08 µM [fluorescent, side channel, single point]"},
      {"molecule": "O=S(=O)(c1ccc(-c2csc(-c3cccnc3)n2)cc1)N1CCCC1", "Potency": "inconclusive: 28.2 µM [quencher, side channel, single point]"},
      {"molecule": "C[C@@H](O)C1NC(=O)[C@H](CCCCN)NC(=O)c2cc([N+](=O)[O-])cc(F)c2NCCCC[C@@H](C(N)=O)NC1=O", "note": "(some centres not stated)", "Potency": "inconclusive: 25.1 µM [quencher, side channel, single point]"},
      {"molecule": "CC(C)Nc1ncnc2c1cnn2-c1ccc(Cl)cc1", "Potency": "inconclusive: 0.794 µM [quencher, side channel, single point]"},
      {"molecule": "O=C(N/N=C/c1ccc(O)c(O)c1)N/N=C/c1ccc(O)c(O)c1", "Potency": "inconclusive: 0.891 µM [quencher, side channel, full curve, poor fit]"},
      {"molecule": "Nc1nnc(CC(=O)N/N=C/c2ccc(-c3ccccc3)o2)s1", "Potency": "inconclusive: 17.8 µM [quencher, side channel, partial curve]"},
      {"molecule": "O=C(/C=C/c1ccc(-c2ccccc2[N+](=O)[O-])o1)c1ccccc1", "Potency": "inconclusive: 11.2 µM [quencher, side channel, partial curve]"},
      {"molecule": "CCCCn1c(=N)n(CC(O)COc2ccc(C)cc2)c2ccccc21", "note": "(configuration not stated)", "Potency": "inactive"},
      {"molecule": "COc1ccccc1CC(=O)NNS(=O)(=O)c1ccccc1[N+](=O)[O-]", "Potency": "inconclusive: 35.5 µM [quencher, side channel, single point]"},
      {"molecule": "COc1ccc2cc(Br)ccc2c1CC(=O)N(C)C", "Potency": "inconclusive: 12.6 µM [quencher, side channel, partial curve]"},
      {"molecule": "CCN1CCN(C(=O)c2cc3cc4cc(OC)ccc4nc3s2)CC1", "Potency": "inconclusive: 20 µM [quencher, partial curve]"},
      {"molecule": "O=C(Cc1ccc(Br)cc1)Nc1ncc([N+](=O)[O-])s1", "Potency": "inconclusive: 20 µM [quencher, side channel, partial curve]"},
      {"molecule": "CCOC(=O)c1cccc(NC(=O)CCc2nnc3ccc(N4CCCCC4)nn23)c1", "Potency": "inconclusive: 39.8 µM [fluorescent, single point]"},
      {"molecule": "COc1ccc(/C=N/NC(=O)c2cccnc2)cc1COc1ccc(NC(C)=O)cc1", "Potency": "inconclusive: 28.2 µM [quencher, side channel, single point]"},
      {"molecule": "C#CCOCCOCCOCCNc1nc(N2CCN(C(=O)[C@H](Cc3ccc(O)cc3)n3cc([C@@H](N)C(C)CC)nn3)CC2)nc(N2CCN(C(=O)[C@H](Cc3cc4ccccc4[nH]3)n3cc([C@@H](N)CC(C)C)nn3)CC2)n1", "note": "(some centres not stated)", "Potency": "inconclusive: 79.4 µM [inhibitor, single point]"},
      {"molecule": "COc1ccc(OC)c(S(=O)(=O)CC(=O)c2cc3ccc(OC)cc3oc2=O)c1", "Potency": "inconclusive: 14.1 µM [quencher, side channel, partial curve]"},
      {"molecule": "NC(=O)CSc1nnc2ccc(-c3ccco3)nn12", "Potency": "inconclusive: 17.8 µM [quencher, side channel, partial curve]"},
      {"molecule": "O=C(O)CCNC(=O)c1ccc(NC(=O)Cc2ccc(Cl)cc2)cc1", "Potency": "inactive"},
      {"molecule": "NC(=O)CSc1nnc(-c2cccc(S(=O)(=O)N3CCCCC3)c2)o1", "Potency": "inactive"},
      {"molecule": "O=C(N=c1ccn(-c2nc3ccccc3nc2NS(=O)(=O)c2ccc(Cl)cc2)cc1)c1cccs1", "Potency": "inconclusive: 39.8 µM [fluorescent, partial curve]"},
      {"molecule": "CC(C(=O)Nc1ccc(OCc2ccccc2)cc1)N1CCCC1", "note": "(configuration not stated)", "Potency": "inactive"},
      {"molecule": "N#CCCN(CCC#N)S(=O)(=O)c1ccc(C(=O)Nc2nnc(C3=COCCO3)o2)cc1", "Potency": "inactive"},
      {"molecule": "O=C(c1c[nH]c2ccc(S(=O)(=O)N3CCC4(CC3)OCCO4)cc2c1=O)N1CCOCC1", "Potency": "inactive"},
      {"molecule": "Cc1cc(Nc2ncc(Cl)cc2Cl)n(-c2ccccc2C)n1", "Potency": "inconclusive: 1.26 µM [fluorescent, side channel, full curve, poor fit]"},
      {"molecule": "CCn1ccnc1CN(C)C(=O)c1cc(COc2ccc(OC)c3ccccc23)on1", "Potency": "inconclusive: 20 µM [quencher, side channel, single point]"},
      {"molecule": "N/C(=N\\OC(=O)Cc1ccccc1)c1ccc([N+](=O)[O-])cc1", "Potency": "inconclusive: 25.1 µM [quencher, side channel, partial curve]"},
      {"molecule": "O=C1CCN(c2ccc([N+](=O)[O-])cc2F)CC1", "Potency": "inconclusive: 17.8 µM [quencher, side channel, partial curve]"},
      {"molecule": "CCN(c1ccccc1)c1cc2ccccc2c(=O)[nH]1", "Potency": "inconclusive: 22.4 µM [quencher, side channel, partial curve]"},
      {"molecule": "Cc1cc(C)n(C(=O)c2cc([N+](=O)[O-])cc([N+](=O)[O-])c2)n1", "Potency": "inconclusive: 25.1 µM [quencher, partial curve]"},
      {"molecule": "CCN(CC)S(=O)(=O)c1ccc(N/N=C/c2cc(OC)ccc2O)nc1", "Potency": "inactive"},
      {"molecule": "CCOC(=O)c1ccc(NC(=O)c2ccc3c(c2)C(=O)N(CC2CCCO2)C3=O)cc1", "note": "(configuration not stated)", "Potency": "inconclusive: 15.8 µM [quencher, side channel, partial curve]"},
      {"molecule": "COc1cc2c3c(c1OC)C1(C=CC(=O)C=C1)CC3N(C(=O)CCC(=O)O)CC2", "note": "(configuration not stated)", "Potency": "inconclusive: 31.6 µM [quencher, side channel, single point]"},
      {"molecule": "CN1CCc2nc3sc(C(=O)NCc4ccccc4)c(N)c3cc2C1", "Potency": "inconclusive: 12.6 µM [quencher, side channel, partial curve]"}
    ]}
  ]
}
